# Assay results published in the supplement of paper PMC8728848.
# The other results are listed elsewhere or left out.
# B1: AAA (Anguilla anguilla), Q7SIC1 (protein)
# chain: VIPEGYTQENVAVRGKATQSAQLRGEHAANSEASNAIDGNRDSNFYHGSCTHSSGQANPWWRVDLLQVYTITSVTITNRGDCCGERISGAEINIGQHLASNGVNNPECSVIGSMATGETKTFHCPAPMIGRYVVTYLPTSESLHLCEVEVNVDKPAAA
# Key:
# Assay in all cases: glycan array binding signal (z-score within array); higher = stronger binding
# Conditions in all cases: glycan notation: IUPAC condensed, linker removed
# [1] = target: Gal(b1-4)GlcNAc(b1-3)Gal(b1-4)GlcNAc(b1-3)Gal(b1-4)GlcNAc(b1-3)Gal(b1-4)GlcNAc(b1-2)[Gal(b1-4)GlcNAc(b1-3)Gal(b1-4)GlcNAc(b1-3)Gal(b1-4)GlcNAc(b1-3)Gal(b1-4)GlcNAc(b1-6)]Man(a1-6)[Gal(b1-4)GlcNAc(b1-3)Gal(b1-4)GlcNAc(b1-3)Gal(b1-4)GlcNAc(b1-3)Gal(b1-4)GlcNAc(b1-2)Man(a1-3)]Man(b1-4)GlcNAc(b1-4)[Fuc(a1-6)]GlcNAc
# In short: (§1)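 Columns mapping to the same glycan were averaged after glycan names were converted to IUPAC-condensed notation. The data come from 3228 arrays in the Consortium for Functional Glycomics database, limited to those with an available protein sequence. Binding is reported as a within-array Z-score averaged across arrays of one protein sequence and across linkers.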
# [2] = target: Gal(b1-4)GlcNAc(b1-3)Gal(b1-4)GlcNAc(b1-3)Gal(b1-4)GlcNAc(b1-3)Gal(b1-4)GlcNAc(b1-3)Gal(b1-4)GlcNAc(b1-2)Man(a1-3)[Gal(b1-4)GlcNAc(b1-3)Gal(b1-4)GlcNAc(b1-3)Gal(b1-4)GlcNAc(b1-3)Gal(b1-4)GlcNAc(b1-3)Gal(b1-4)GlcNAc(b1-2)Man(a1-6)]Man(b1-4)GlcNAc(b1-4)GlcNAc
# In short: as §1
# [3] = target: Gal(b1-4)GlcNAc(b1-3)Gal(b1-4)GlcNAc(b1-3)Gal(b1-4)GlcNAc(b1-3)Gal(b1-4)GlcNAc(b1-3)Gal(b1-4)GlcNAc(b1-2)Man(a1-3)[Gal(b1-4)GlcNAc(b1-3)Gal(b1-4)GlcNAc(b1-3)Gal(b1-4)GlcNAc(b1-3)Gal(b1-4)GlcNAc(b1-3)Gal(b1-4)GlcNAc(b1-2)Man(a1-6)]Man(b1-4)GlcNAc(b1-4)[Fuc(a1-6)]GlcNAc
# In short: as §1
# [4] = target: Gal(b1-4)GlcNAc(b1-3)Gal(b1-4)GlcNAc(b1-3)Gal(b1-4)GlcNAc(b1-3)Gal(b1-4)GlcNAc(b1-3)Gal(b1-4)GlcNAc(b1-2)[Gal(b1-4)GlcNAc(b1-3)Gal(b1-4)GlcNAc(b1-3)Gal(b1-4)GlcNAc(b1-3)Gal(b1-4)GlcNAc(b1-3)Gal(b1-4)GlcNAc(b1-6)]Man(a1-6)[Gal(b1-4)GlcNAc(b1-3)Gal(b1-4)GlcNAc(b1-3)Gal(b1-4)GlcNAc(b1-3)Gal(b1-4)GlcNAc(b1-3)Gal(b1-4)GlcNAc(b1-2)Man(a1-3)]Man(b1-4)GlcNAc(b1-4)[Fuc(a1-6)]GlcNAc
# In short: as §1
# [5] = target: Gal(b1-4)GlcNAc(b1-3)Gal(b1-4)GlcNAc(b1-3)Gal(b1-4)GlcNAc(b1-3)Gal(b1-4)GlcNAc(b1-3)Gal(b1-4)GlcNAc(b1-3)Gal(b1-4)GlcNAc(b1-2)Man(a1-3)[Gal(b1-4)GlcNAc(b1-3)Gal(b1-4)GlcNAc(b1-3)Gal(b1-4)GlcNAc(b1-3)Gal(b1-4)GlcNAc(b1-3)Gal(b1-4)GlcNAc(b1-3)Gal(b1-4)GlcNAc(b1-2)Man(a1-6)]Man(b1-4)GlcNAc(b1-4)GlcNAc
# In short: as §1
# [6] = target: Gal(b1-4)GlcNAc(b1-3)Gal(b1-4)GlcNAc(b1-3)GalNAc
# In short: as §1
# [7] = target: Gal(b1-4)GlcNAc(b1-3)Gal(b1-4)GlcNAc(b1-3)[Gal(b1-4)GlcNAc(b1-3)Gal(b1-4)GlcNAc(b1-6)]GalNAc
# In short: as §1
# [8] = target: Gal(b1-4)GlcNAc(b1-3)Gal(b1-4)GlcNAc(b1-6)[Gal(b1-3)]GalNAc
# In short: as §1
# [9] = target: Gal(b1-4)GlcNAc(b1-3)Gal(b1-4)[Fuc(a1-3)]GlcNAc(b1-3)Gal(b1-4)[Fuc(a1-3)]GlcNAc
# In short: as §1
# [10] = target: Gal(b1-4)GlcNAc(b1-3)GalNAc
# In short: as §1
# [11] = target: Gal(b1-4)GlcNAc(b1-3)[Fuc(a1-3)GlcNAc(b1-6)]Gal(b1-4)Glc
# In short: as §1
# [12] = target: Gal(b1-4)GlcNAc(b1-3)[Gal(b1-4)GlcNAc(b1-6)]Gal(b1-4)GlcNAc
# In short: as §1
# [13] = target: Gal(b1-4)GlcNAc(b1-3)[Gal(b1-4)GlcNAc(b1-6)]GalNAc
# In short: as §1
# [14] = target: Gal(b1-4)GlcNAc(b1-3)[GlcNAc(b1-6)]Gal(b1-4)GlcNAc
# In short: as §1
# [15] = target: Gal(b1-4)GlcNAc(b1-6)Gal(b1-4)GlcNAc
# In short: as §1
# [16] = target: Gal(b1-4)GlcNAc(b1-6)GalNAc
# In short: as §1
# [17] = target: Gal(b1-4)GlcNAc(b1-6)[Gal(b1-3)]GalNAc
# In short: as §1
# [18] = target: Gal(b1-4)GlcNAc(b1-6)[Gal(b1-3)]GlcNAc
# In short: as §1
# [19] = target: Gal(b1-4)GlcNAc(b1-6)[Gal(b1-4)GlcNAc(b1-3)]GalNAc
# In short: as §1
# Gal(b1-4)GlcNAc6P = target: Gal(b1-4)GlcNAc6P
# In short: as §1
# Gal(b1-6)Gal = target: Gal(b1-6)Gal
# In short: as §1
# Gal3S(b1-3)GalNAc = target: Gal3S(b1-3)GalNAc
# In short: as §1
# Gal3S(b1-3)GlcNAc = target: Gal3S(b1-3)GlcNAc
# In short: as §1
# [20] = target: Gal3S(b1-3)[Fuc(a1-4)]GlcNAc
# In short: as §1
# Gal3S(b1-4)Glc = target: Gal3S(b1-4)Glc
# In short: as §1
# Gal3S(b1-4)Glc6S = target: Gal3S(b1-4)Glc6S
# In short: as §1
# Gal3S(b1-4)GlcNAc = target: Gal3S(b1-4)GlcNAc
# In short: as §1
# Gal3S(b1-4)GlcNAc6S = target: Gal3S(b1-4)GlcNAc6S
# In short: as §1
# [21] = target: Gal3S(b1-4)[Fuc(a1-3)]Glc6S
# In short: as §1
# [22] = target: Gal3S(b1-4)[Fuc(a1-3)]GlcNAc
# In short: as §1
# [23] = target: Gal3S(b1-4)[Fuc(a1-3)]GlcNAc6S
# In short: as §1
# Gal3S4S(b1-4)GlcNAc = target: Gal3S4S(b1-4)GlcNAc
# In short: as §1
# Gal3S6S(b1-4)GlcNAc = target: Gal3S6S(b1-4)GlcNAc
# In short: as §1
# Gal3S6S(b1-4)GlcNAc6S = target: Gal3S6S(b1-4)GlcNAc6S
# In short: as §1
# Gal4S(b1-4)GlcNAc = target: Gal4S(b1-4)GlcNAc
# In short: as §1
# Gal4S6S(b1-4)GlcNAc = target: Gal4S6S(b1-4)GlcNAc
# In short: as §1
# Gal6P(b1-4)GlcNAc = target: Gal6P(b1-4)GlcNAc
# In short: as §1
# Gal6S(b1-3)GlcNAc = target: Gal6S(b1-3)GlcNAc
# In short: as §1
# Gal6S(b1-3)GlcNAc6S = target: Gal6S(b1-3)GlcNAc6S
# In short: as §1
# Gal6S(b1-4)Glc = target: Gal6S(b1-4)Glc
# In short: as §1
# Gal6S(b1-4)Glc6S = target: Gal6S(b1-4)Glc6S
# In short: as §1
# Gal6S(b1-4)GlcNAc = target: Gal6S(b1-4)GlcNAc
# In short: as §1
# Gal6S(b1-4)GlcNAc6S = target: Gal6S(b1-4)GlcNAc6S
# In short: as §1
# GalNAc(a1-3)Gal = target: GalNAc(a1-3)Gal
# In short: as §1
# GalNAc(a1-3)GalNAc = target: GalNAc(a1-3)GalNAc
# In short: as §1
binder,measurement,setting,value
B1,glycan array binding signal (z-score),[1],-0.123
same,glycan array binding signal (z-score),[2],-0.047
same,glycan array binding signal (z-score),[3],-0.123
same,glycan array binding signal (z-score),[4],-0.032
same,glycan array binding signal (z-score),[5],-0.1
same,glycan array binding signal (z-score),[6],1.02
same,glycan array binding signal (z-score),[7],1.43
same,glycan array binding signal (z-score),[8],0.717
same,glycan array binding signal (z-score),[9],-0.016
same,glycan array binding signal (z-score),[10],-0.168
same,glycan array binding signal (z-score),[11],0.148
same,glycan array binding signal (z-score),[12],-0.163
same,glycan array binding signal (z-score),[13],0.003
same,glycan array binding signal (z-score),[14],-0.102
same,glycan array binding signal (z-score),[15],-0.313
same,glycan array binding signal (z-score),[16],0.062
same,glycan array binding signal (z-score),[17],0.115
same,glycan array binding signal (z-score),[18],-0.248
same,glycan array binding signal (z-score),[19],-0.023
same,glycan array binding signal (z-score),Gal(b1-4)GlcNAc6P,-0.219
same,glycan array binding signal (z-score),Gal(b1-6)Gal,-0.157
same,glycan array binding signal (z-score),Gal3S(b1-3)GalNAc,-0.191
same,glycan array binding signal (z-score),Gal3S(b1-3)GlcNAc,-0.151
same,glycan array binding signal (z-score),[20],-0.129
same,glycan array binding signal (z-score),Gal3S(b1-4)Glc,-0.117
same,glycan array binding signal (z-score),Gal3S(b1-4)Glc6S,-0.043
same,glycan array binding signal (z-score),Gal3S(b1-4)GlcNAc,-0.389
same,glycan array binding signal (z-score),Gal3S(b1-4)GlcNAc6S,1.01
same,glycan array binding signal (z-score),[21],0.158
same,glycan array binding signal (z-score),[22],-0.194
same,glycan array binding signal (z-score),[23],-0.154
same,glycan array binding signal (z-score),Gal3S4S(b1-4)GlcNAc,-0.191
same,glycan array binding signal (z-score),Gal3S6S(b1-4)GlcNAc,-0.09
same,glycan array binding signal (z-score),Gal3S6S(b1-4)GlcNAc6S,-0.044
same,glycan array binding signal (z-score),Gal4S(b1-4)GlcNAc,-0.077
same,glycan array binding signal (z-score),Gal4S6S(b1-4)GlcNAc,-0.151
same,glycan array binding signal (z-score),Gal6P(b1-4)GlcNAc,-0.388
same,glycan array binding signal (z-score),Gal6S(b1-3)GlcNAc,-0.275
same,glycan array binding signal (z-score),Gal6S(b1-3)GlcNAc6S,-0.273
same,glycan array binding signal (z-score),Gal6S(b1-4)Glc,-0.307
same,glycan array binding signal (z-score),Gal6S(b1-4)Glc6S,0.034
same,glycan array binding signal (z-score),Gal6S(b1-4)GlcNAc,-0.291
same,glycan array binding signal (z-score),Gal6S(b1-4)GlcNAc6S,-0.292
same,glycan array binding signal (z-score),GalNAc(a1-3)Gal,-0.207
same,glycan array binding signal (z-score),GalNAc(a1-3)GalNAc,-0.17
